Laboratory results taken from publication PMC4336329 (PLoS ONE, 2015).
The whole screen tested about 310,000 compounds, of which about 2,200 (0.71%) showed an effect of 50% or more. The effect is printed as a negative number. The list shows a part of the results.

The molecules below were run against human ether-à-go-go-related gene (hERG) potassium channel (human, UniProt Q12809) (assay: primary screen, population patch clamp on CHO cells stably expressing hERG).
Chain of human ether-à-go-go-related gene (hERG) potassium channel (Q12809 whole entry, looked up): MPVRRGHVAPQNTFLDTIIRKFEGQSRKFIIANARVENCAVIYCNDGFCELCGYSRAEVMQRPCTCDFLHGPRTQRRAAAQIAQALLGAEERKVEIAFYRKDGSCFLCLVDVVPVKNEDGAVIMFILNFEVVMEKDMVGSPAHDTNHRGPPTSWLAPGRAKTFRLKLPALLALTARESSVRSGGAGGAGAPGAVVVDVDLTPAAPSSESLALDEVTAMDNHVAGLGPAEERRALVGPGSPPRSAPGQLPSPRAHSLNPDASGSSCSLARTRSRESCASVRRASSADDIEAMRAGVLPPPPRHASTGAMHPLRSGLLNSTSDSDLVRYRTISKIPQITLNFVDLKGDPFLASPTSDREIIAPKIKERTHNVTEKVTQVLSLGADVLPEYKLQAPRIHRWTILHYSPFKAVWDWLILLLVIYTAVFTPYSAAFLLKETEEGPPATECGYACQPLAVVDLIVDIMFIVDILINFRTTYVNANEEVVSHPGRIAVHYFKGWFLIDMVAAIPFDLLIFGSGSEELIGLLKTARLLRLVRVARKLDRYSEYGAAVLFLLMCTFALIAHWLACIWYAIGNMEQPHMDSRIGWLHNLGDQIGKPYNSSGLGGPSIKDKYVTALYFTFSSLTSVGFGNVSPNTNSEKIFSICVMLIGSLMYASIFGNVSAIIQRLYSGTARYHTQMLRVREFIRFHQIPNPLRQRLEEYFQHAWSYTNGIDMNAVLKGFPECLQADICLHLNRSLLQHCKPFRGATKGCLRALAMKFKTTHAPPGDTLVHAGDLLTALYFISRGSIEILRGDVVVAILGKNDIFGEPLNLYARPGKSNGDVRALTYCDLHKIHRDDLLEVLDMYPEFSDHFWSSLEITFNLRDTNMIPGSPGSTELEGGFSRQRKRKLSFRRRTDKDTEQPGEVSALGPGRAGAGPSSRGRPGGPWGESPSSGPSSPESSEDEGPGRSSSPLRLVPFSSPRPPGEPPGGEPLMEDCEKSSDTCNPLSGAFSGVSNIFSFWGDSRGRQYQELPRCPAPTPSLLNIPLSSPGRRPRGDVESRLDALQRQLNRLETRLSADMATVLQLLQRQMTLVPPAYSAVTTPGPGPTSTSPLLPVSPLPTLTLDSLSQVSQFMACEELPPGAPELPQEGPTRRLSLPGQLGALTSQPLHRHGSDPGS

SMILES	hERG current change (%, negative = inhibition) at 1uM
C#CCOCCOCCOCCNc1nc(N2CCN(C(=O)Cn3cc(CCCC[NH3+])nn3)CC2)nc(N2CCN(C(=O)Cn3cc(CC(C)O)nn3)CC2)n1.[Cl-] (centres unmarked)	-15.9%
Cc1nnc(SCCN2C(=O)c3ccccc3C2=O)nc1C	4.05%
O=C1CSC(c2cccnc2)N1Cc1ccc(Cl)cc1Cl (centres unmarked)	9.22%
O=C(CN(C(=O)CCC(=O)Nc1ccccn1)c1ccc(F)cc1)NCCc1ccccc1	19.1%
CCOCCc1c(O)nc(SC)[nH]c1=O	16.8%
COCCNC(=O)c1cn(C)c2ccc(S(=O)(=O)N3CCCC3)cc2c1=O	8.14%
COc1cccc(C(C(=O)NC2CCCC2)N(C(=O)c2ccco2)c2cccc(C(C)=O)c2)c1OC (centres unmarked)	17.6%
COc1ccc(OC)c(Nc2nc(NCCCN(C)C)nc(N)c2[N+](=O)[O-])c1	2.22%
COc1ccccc1N(CC(=O)N/N=C/c1ccc(SC)cc1)S(C)(=O)=O	3.73%
CN1CCC(N(C)S(=O)(=O)c2ccc(F)cc2F)CC1	14.9%
CN(C)c1ccnc2sc3c(SCc4ccc(Cl)cc4)ncnc3c12	7.62%
CCC(C)N(C(=O)CSc1nc(C)c(C)c(C)c1C#N)C1CCS(=O)(=O)C1 (centres unmarked)	3.66%
Cc1ccc(-n2c(Cn3ncc4ccccc4c3=O)n[nH]c2=S)cc1	7.15%
CC(=O)c1cc2c(cc1NS(=O)(=O)c1ccc(C)cc1)OCO2	-5.31%
Cc1ccc(Cn2nc(C)c(NC(=O)c3cc(C)no3)c2C)cc1	9.09%
CC1(C)CC2(CC(c3ccccc3)Oc3cc(O)ccc32)NC(=S)N1 (centres unmarked)	6.06%
O=C(Nc1ccc(NC(=O)C2CC2)nc1)c1ccccn1	8.25%
CN(C)CCN1C(=O)C(=O)/C(=C(/O)c2ccc(S(=O)(=O)N3CCOCC3)cc2)C1c1ccc(Br)cc1 (centres unmarked)	7.44%
COc1cc(C(=O)OC2CSCC2NC(=O)c2ccccc2)cc(OC)c1OC (centres unmarked)	16.1%
O=[N+]([O-])c1ccc(/C=C/c2ccc3cccc(O)c3n2)cc1	8.84%
Cc1oc(-c2ccccc2F)nc1CN1CCC(C(=O)NC2CC2)CC1	0.032%
CN(C(=O)c1ccc(-c2nn(C)c(=O)c3ccccc23)cc1)C1CCCCC1	-0.517%
CN(CC(=O)NC1CCCCCCC1)S(=O)(=O)c1cccc2cccnc12	-7.56%
